Measurements reported in the BET-seq Pho4 binding data (Le et al. 2018).
Some of the results follow. These are noisy estimates, calculated here from bound and input reads.

target: T1, Pho4 (S. cerevisiae) (UniProt P07270); assay: relative binding free energy (BET-seq); higher = weaker binding; conditions: reference: library average
T1 sequence: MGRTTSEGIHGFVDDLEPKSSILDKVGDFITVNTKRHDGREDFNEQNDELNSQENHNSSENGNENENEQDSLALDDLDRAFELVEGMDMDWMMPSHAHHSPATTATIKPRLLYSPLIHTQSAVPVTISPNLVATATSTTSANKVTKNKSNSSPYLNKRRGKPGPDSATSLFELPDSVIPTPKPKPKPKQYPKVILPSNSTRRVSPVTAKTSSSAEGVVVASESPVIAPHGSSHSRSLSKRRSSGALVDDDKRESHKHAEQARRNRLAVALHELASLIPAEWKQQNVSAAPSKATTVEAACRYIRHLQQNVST

Sequence	relative binding free energy [kcal/mol]
TTGGTCACGTGAGATG	0.36
AGTGTCACGTGCAGAT	0.01
ATGGACACGTGGGAGG	-0.12
GGGGGCACGTGGTCCT	-0.19
GATGGCACGTGGGTCC	-0.1
TTAAGCACGTGACGGT	0.06
TTAGTCACGTGTACGG	0.08
GGTGGCACGTGGTTGG	-0.03
TGATTCACGTGAGCGT	0.25
GAATTCACGTGGGGGG	0.23
TATCTCACGTGGTCGT	0.14
TTGGGCACGTGGGGCA	-0.24
GGCGACACGTGGGGTA	-0.12
TGTATCACGTGAAGGG	0.43
GAATGCACGTGATTAT	0.33
GGGGTCACGTGTGCGC	0.05
TGGGGCACGTGAAAAG	0.3
CTTATCACGTGGGGGT	-0.03
TATTTCACGTGCTGTG	0.14
AGGTTCACGTGATTCT	0.18
GTGATCACGTGGAGAA	0.15
GTCCTCACGTGTTTGT	0.3
CATTTCACGTGTTTCT	0.29

Sequence	relative binding free energy [kcal/mol]
GGCGTCACGTGAAGGT	0.38
TGAGCCACGTGCGTTG	-0.1
AGTCTCACGTGGGTGT	-0.08
AGATGCACGTGCTGTG	-0.2
TAGGGCACGTGTTGAA	0.01
AGCGACACGTGGGAAG	-0.03
CGTGGCACGTGGGGAG	-0.18
TTCATCACGTGAAGTG	0.24
TCATACACGTGGGTGT	-0.2
GTACACACGTGGGTGT	-0.06
TATTTCACGTGATTCT	0.35
ATGAACACGTGTGGAT	0.16
TAGGTCACGTGTTTGA	0.14
TGGTCCACGTGCTATG	0.02
TCGTACACGTGGTTGT	0.07
GCGCTCACGTGTTTGT	0.31
CGTGTCACGTGGGATT	0.16
CGGATCACGTGGTGCT	0.2
TCTTTCACGTGTTGAG	0.12
GGATACACGTGGTATG	-0.06
CGGGGCACGTGGGGCT	-0.2
ATTTTCACGTGTATCA	0.05
AGGGGCACGTGGTTAC	-0.3

Sequence	relative binding free energy [kcal/mol]
TAAATCACGTGTTTAG	0.16
TGTGTCACGTGGGTTC	-0.08
TCGGTCACGTGCAGGG	0.09
TGGGGCACGTGGGTAT	-0.27
ATAATCACGTGTTGAG	0.12
ATGTCCACGTGTAATG	0.13
GCGTTCACGTGAGTAG	0.44
TGTGACACGTGGGGAG	-0.09
ATGGACACGTGATTCG	0.2
AAATGCACGTGGATTA	-0.01
GGATGCACGTGCATTG	0.03
GAGTTCACGTGAGTTG	0.51
ATCGTCACGTGCATGT	0.07
AATAGCACGTGTTGTC	0
TGTTACACGTGTGACA	0.18
TAAGTCACGTGGATCT	0.08
GTTCACACGTGGGTTG	0.06
AGGGTCACGTGAATGA	0.36
TTATTCACGTGATTAT	0.28
TAGATCACGTGGGTTC	0.13
CTAGTCACGTGGGGCG	-0.01
CGGGACACGTGAGGTC	0.44
CTTGTCACGTGCTGTT	0.09

Sequence	relative binding free energy [kcal/mol]
GTAGCCACGTGCGGGT	-0.04
ATTTTCACGTGGAGGT	0.24
GAAGTCACGTGTGATT	0.21
GTTTACACGTGGGTTA	0.12
AGTGCCACGTGGTAGG	-0.17
ACTTTCACGTGAGGTG	0.36
GTGGTCACGTGGGTTC	0.06
AGCCGCACGTGGGGCG	-0.26
TGTATCACGTGTTACT	0.15
AGAATCACGTGAGGGA	0.37
GGGCACACGTGGCGTG	-0.09
GTTGCCACGTGTGGCG	0.03
GTTTACACGTGATTGC	0.21
GGTAGCACGTGGGCGG	-0.28
TAGCGCACGTGGTTGT	-0.11
TGAATCACGTGGAGGG	0.15
TCGTTCACGTGGTTAG	0.17
GTATTCACGTGATTCG	0.38
ACATTCACGTGTTGGG	0.19
TGTGACACGTGTGGTC	-0.08
GGGATCACGTGTTCTT	0.25
TGGCCCACGTGTTGTA	0.05
TACTTCACGTGAGGGG	0.42

Sequence	relative binding free energy [kcal/mol]
AGTCTCACGTGGGGCA	0.04
TTATGCACGTGTTACG	-0.16
TAGGTCACGTGAGTTG	0.26
TAGCGCACGTGTAAGG	-0.08
CTTGCCACGTGGTCGG	-0.03
TCTATCACGTGAGATG	0.5
TAAGTCACGTGATTAG	0.14
GTGAGCACGTGTCAGG	-0.16
GGTATCACGTGGAGAT	0.29
GTTGTCACGTGGGGCC	0.07
TCAGGCACGTGTGGGT	-0.21
TGAGGCACGTGGCGAG	-0.19
GTCGGCACGTGGGCGT	-0.13
CTTGCCACGTGCGGGG	-0.12
GGGGTCACGTGGTTGC	0.18
GTTCACACGTGTTTGT	0.04
CGTTGCACGTGGGTTT	-0.11
ACTTGCACGTGGGATG	-0.15
TATGACACGTGTTGGA	0.01
TCGGTCACGTGCATTG	0.15
TATCTCACGTGTTATT	0.13
GGCGCCACGTGGCAGG	-0.15
AGGAACACGTGCGTGG	-0.19
